Among all 230,000 compounds or so, about 1,500 (0.65%) were called active. Inconclusive results, whose numbers are uncertain, are shown with a selection of clear calls. Calls follow the shape of the dose curve; as a rule, active = well fitted inhibition curve with a large enough effect; inconclusive = small, poorly fitted or top-dose-only effect; inactive = no such curve, though single readings can be large or run the other way. A potency beside an inconclusive call is a rough fit, not a confirmed value.
Biological target: Lethal(3)malignant brain tumor-like protein 1 (Homo sapiens) (UniProt Q9Y468)
Chain of UniProt Q9Y468 (Q9Y468 whole entry, looked up): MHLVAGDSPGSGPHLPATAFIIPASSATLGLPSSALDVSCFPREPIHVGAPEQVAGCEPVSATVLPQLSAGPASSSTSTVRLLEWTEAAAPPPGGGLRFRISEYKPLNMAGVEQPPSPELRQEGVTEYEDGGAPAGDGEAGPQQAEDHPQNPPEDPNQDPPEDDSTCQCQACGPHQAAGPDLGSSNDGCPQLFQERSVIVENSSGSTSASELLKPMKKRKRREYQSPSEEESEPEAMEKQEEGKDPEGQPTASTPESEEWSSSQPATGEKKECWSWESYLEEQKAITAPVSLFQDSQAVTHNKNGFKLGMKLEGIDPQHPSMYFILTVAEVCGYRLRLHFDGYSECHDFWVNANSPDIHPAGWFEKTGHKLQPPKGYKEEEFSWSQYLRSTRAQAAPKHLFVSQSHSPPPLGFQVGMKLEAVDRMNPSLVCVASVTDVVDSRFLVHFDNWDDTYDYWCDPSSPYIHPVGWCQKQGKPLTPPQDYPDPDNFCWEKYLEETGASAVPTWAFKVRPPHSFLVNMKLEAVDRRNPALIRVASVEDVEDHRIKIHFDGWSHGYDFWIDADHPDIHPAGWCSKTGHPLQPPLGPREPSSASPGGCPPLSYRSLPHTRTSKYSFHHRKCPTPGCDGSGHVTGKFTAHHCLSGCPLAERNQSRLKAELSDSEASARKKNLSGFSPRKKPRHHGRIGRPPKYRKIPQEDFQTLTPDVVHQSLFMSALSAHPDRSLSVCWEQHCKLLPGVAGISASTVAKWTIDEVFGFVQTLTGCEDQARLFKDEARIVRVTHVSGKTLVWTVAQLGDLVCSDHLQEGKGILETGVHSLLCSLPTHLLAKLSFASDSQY
Assay: qHTS Assay for the Inhibitors of L3MBTL1; also: nearly all actives have a fitted effect of over 60% in size
Conditions: AlphaScreen L3MBTL1–H3K9me1 peptide binding; activity, negative = inhibition: at 57.1 µM (top of the series)
Procedure, shortened: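 L3MBTL1 50 nM + b-AHA-H3(1-15)K9me1 75 nM, 30 min RT; compound added, 30 min RT; streptavidin donor/Ni-chelate acceptor beads 10 ug/mL each final, 30 min RT dark; AlphaScreen read.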
% is scaled to controls: 0 for no effect and ±100 for the full control effect; potency is read from the fitted curve at half-maximal effect; tags tell the direction and shape of the fitted curve.

| Compound | activity, negative = inhibition | Potency |
| --- | --- | --- |
| COc1ccc(OC)c(S(=O)(=O)Nc2ccc(O)c(Sc3ncn[nH]3)c2)c1 | inactive: -3.22% | – |
| CCN(CC)c1ccc(N=Cc2c(C)[nH]c3ccccc23)cc1 | – | inconclusive: 28.2 µM [inhibitor, single point] |
| CCNc1ccc(C(=O)NN=C2CCCC2)cc1[N+](=O)[O-] | – | inconclusive: 20 µM [inhibitor, partial curve] |
| CNC(=S)N/N=C/c1cn(Cc2ccc(C)cc2)c2ccccc12 | – | inconclusive: 25.1 µM [inhibitor, partial curve] |
| CC(=O)Oc1cccc(/C=c2\sc3nc(-c4ccco4)nn3c2=O)c1 | – | inconclusive: 39.8 µM [inhibitor, single point] |
| CC(C)N1C(=O)/C(=C\c2nc3ccccc3c(=O)[nH]2)c2ccccc21 | – | inconclusive: 25.1 µM [inhibitor, single point] |
| Cc1ccc(Sc2ccc(CN3CCCC3)cc2[N+](=O)[O-])cc1 | – | inconclusive: 7.08 µM [inhibitor, partial curve] |
| Cc1occc1C(=O)N/N=C/C1=C(N2CCOCC2)C(=C\c2ccc(Cl)cc2)/CC1 | inactive: 4.92% | – |
| O=C1CN(C(=O)c2ccc(Br)o2)C(c2ccccc2)c2cc(Br)ccc2N1 (stereo unspecified) | – | inconclusive: 25.1 µM [inhibitor, partial curve, poor fit] |
| O=c1oc2ccccc2c(Nc2cccc3cccnc23)c1[N+](=O)[O-] | – | inconclusive: 39.8 µM [inhibitor, single point] |
| O=C(c1cccc(-n2cccc2)c1)N1CCN(S(=O)(=O)c2ccccc2)CC1 | – | active: 4.47 µM |
| C=CCn1c(-c2ccccc2OCC)n[nH]c1=S | – | inconclusive: 0.355 µM [inhibitor, full curve, poor fit] |
| N#Cc1nc(Cc2cccc3ccccc23)oc1NCCCn1ccnc1 | – | inconclusive: 39.8 µM [inhibitor, single point] |
| CN(C)CCCN(C(=O)c1ccc2c(c1)CCCC2)c1nc2ccc(F)cc2s1 | – | inconclusive: 0.794 µM [inhibitor, single point] |
| O=C(CCc1ccccc1)N1CCN(c2ccc([N+](=O)[O-])cc2)CC1 | – | inconclusive: 0.282 µM [inhibitor, full curve, poor fit] |
| C=CCc1c(C)nc(SC(C)C)[nH]c1=O | – | inconclusive: 4.47 µM [inhibitor, single point] |
| CN(CCO)c1ccc(C=NNc2ccc([N+](=O)[O-])cc2S(=O)(=O)Nc2ccccc2C(=O)O)cc1 | – | inconclusive: 31.6 µM [inhibitor, single point] |
| NNC(=O)c1csc(Cc2c(Cl)sc3ccc(Cl)cc23)n1 | – | inconclusive: 22.4 µM [inhibitor, partial curve] |
| COc1ccc(C(=O)/C=C/c2ccc(N3CCCCC3)c([N+](=O)[O-])c2)cc1 | – | inconclusive: 2.82 µM [inhibitor, full curve] |
| Cc1ccc(NC(=S)N(CCCN2CCN(C)CC2)Cc2cccs2)cc1C | – | inconclusive: 0.141 µM [inhibitor, full curve, poor fit] |
| CN(C)c1ccc(N=Nc2ccccc2C(=O)OCC(=O)N(C)c2ccccc2)cc1 | – | inconclusive: 0.708 µM [inhibitor, full curve, poor fit] |
| O=C1CN(C(=O)COc2ccccc2)CCN1 | – | inconclusive: 3.55 µM [inhibitor, single point] |

| Compound | activity, negative = inhibition | Potency |
| --- | --- | --- |
| Cc1cc(N2CCCC2)ccc1/C=C1\NC(=S)N(C)C1=O | – | inconclusive: 39.8 µM [inhibitor, partial curve] |
| CC(=O)Nc1ccc(NC2=C/C(=N/S(=O)(=O)c3cccs3)c3ccccc3C2=O)cc1 | – | inconclusive: 0.891 µM [inhibitor, full curve] |
| COc1ccc(-n2c(C)cc(/C=C/c3nc(O)c([N+](=O)[O-])c(=O)[nH]3)c2C)cc1 | – | inconclusive: 39.8 µM [inhibitor, single point] |
| COc1ccccc1N1CCN(/N=C/c2cc(OC)c(OC)c(OC)c2)CC1 | – | inconclusive: 0.794 µM [inhibitor, single point] |
| CC(C)CCC(CCN1CCCC1)c1ccc2c(c1)OCO2 (stereo unspecified) | – | active: 28.2 µM |
| Fc1ccc(NCc2cn3ccccc3n2)cc1 | – | inconclusive: 39.8 µM [inhibitor, single point] |
| C=CCn1c(O)c(N=NC(=O)CNC(=O)/C=C/c2ccco2)c2ccccc21 | – | inconclusive: 39.8 µM [inhibitor, single point] |
| CCOc1ccc(NC(=O)COC(=O)C2(C)CC2(Cl)Cl)c([N+](=O)[O-])c1 (stereo unspecified) | – | inconclusive: 15.8 µM [inhibitor, partial curve] |
| Cc1cccc(NC(=O)CSCC(=O)Nc2ccc(S(=O)(=O)N3CCCCC3)cc2)c1 | inactive: 2.86% | – |
| COC(=O)c1cc(OC)c(OC)cc1NC(=O)C(C)Sc1ccc(C)cc1 (stereo unspecified) | – | inconclusive: 6.31 µM [inhibitor, single point] |
| C/C(=N\NC(=O)c1cc(C)nc2ccccc12)c1ccccn1 | – | active: 28.2 µM |
| CCc1cc(C=NC2CCCCC2)c(O)s1 | inactive: -26.1% | – |
| COc1cc(-c2noc(C)c2/C=C/c2ccc(C(=O)O)cc2)cc(OC)c1OC | – | inconclusive: 25.1 µM [inhibitor, single point] |
| COc1ccc(Cn2c(=O)[nH]c3cc(C(=O)Nc4ccc(N5CCN(C)CC5)cc4)ccc32)cc1 | – | inconclusive: 31.6 µM [inhibitor, partial curve] |
| COc1cc(NCCC(=O)c2cccs2)c(OC)cc1Cl | – | inconclusive: 31.6 µM [inhibitor, single point] |
| Cc1ccc(C(=O)OC(C)CN2CCOCC2)cc1 (stereo unspecified) | – | inconclusive: 0.112 µM [inhibitor, full curve, poor fit] |
| CSC(=Nc1ccccc1)C(C#N)c1nc2ccccc2[nH]1 (stereo unspecified) | – | inconclusive: 28.2 µM [inhibitor, partial curve] |
| O=C(O)CCCN1C(=O)/C(=C/c2ccncc2)SC1=S | inactive: 3.01% | – |
| Cc1cc(C)nc(SCC(=O)N/N=C\c2sccc2C)n1 | – | inconclusive: 39.8 µM [inhibitor, single point] |
| CC1CCc2sc(C(=O)N/N=C/c3ccc(O)cc3)cc2C1 (stereo unspecified) | inactive: -0.805% | – |
| Cc1ccc(C)n1C(CC(=O)O)c1ccc(C#N)cc1 (stereo unspecified) | – | inconclusive: 35.5 µM [inhibitor, single point] |
| CCCc1[nH]n(-c2nc3ccccc3s2)c(=O)c1C=NCCN1CCOCC1 | – | inconclusive: 7.08 µM [inhibitor, single point] |

| Compound | activity, negative = inhibition | Potency |
| --- | --- | --- |
| Cc1nc2sc(-c3ccccc3)cc2c(=O)n1N | inactive: 7.28% | – |
| N#Cc1ccccc1S(=O)(=O)N1CCN(C(=O)c2cc3c(s2)CCC3)CC1 | – | inconclusive: 39.8 µM [inhibitor, single point] |
| Cc1ccc(C)c(NC(=O)CSc2ncnc3nc[nH]c23)c1 | inactive: -2.43% | – |
| O=C(Nc1ccccc1)c1ccc2nc(-c3ccco3)c(-c3ccco3)nc2c1 | – | inconclusive: 39.8 µM [inhibitor, single point] |
| CCN(CC)CCN(CC(=O)N(C1CCCCC1)C1CCCCC1)C(=O)c1cccnc1 | – | inconclusive: 39.8 µM [inhibitor, single point] |
| CC(C)CCn1cnc2c(oc3nc4c(cc32)CCCC4)c1=O | – | inconclusive: 39.8 µM [inhibitor, single point] |
| O=C(O)CCCCCN1C(=O)/C(=C\c2cn(-c3ccccc3)nc2-c2cccs2)SC1=S | – | inconclusive: 6.31 µM [inhibitor, partial curve] |
| CC(C)(C)OC1NS(=O)(=O)OCC1NCOC(Cl)(Cl)Cl (stereo unspecified) | inactive: 1.44% | – |
| Oc1c(C(c2ccccc2)N2CCCCC2)sc2ncnn12 (stereo unspecified) | – | inconclusive: 0.112 µM [inhibitor, full curve, poor fit] |
| O=C(O)c1cc(NS(=O)(=O)c2ccc(NCc3ccccc3)c([N+](=O)[O-])c2)cc(C(=O)O)c1 | – | inconclusive: 31.6 µM [inhibitor, single point] |
| CCOC(=O)C1(C(F)(F)F)N=C(c2cccnc2)OC(N2CCOCC2)=N1 (stereo unspecified) | – | inconclusive: 0.708 µM [inhibitor, single point] |
| CCCCn1c(N)c(C(=S)NC(=O)CC(C)(C)C)c(=O)n(C)c1=O | – | inconclusive: 0.794 µM [inhibitor, single point] |
| COC(CC(=O)NNC(=S)Nc1ccc(Cl)cc1)OC | – | inconclusive: 0.112 µM [inhibitor, full curve, poor fit] |
| CN(C)c1ncnc2c1NC1=C(S2)C(=NCCCC(=O)O)CC(C)(C)C1 | inactive: 2.72% | – |
| CCOc1ccc(N(C)Cc2cc(=O)oc3ccc(OC)cc23)cc1 | – | inconclusive: 28.2 µM [inhibitor, partial curve] |
| COc1cccc(C(=O)C[n+]2cccc3cc(OC)ccc32)c1 | inactive: 1.11% | – |
| CCc1ccc(-n2cccc2/C=C2/C(=N)N3C(=NC2=O)SN=C3S(C)(=O)=O)cc1 | – | inconclusive: 14.1 µM [inhibitor, partial curve] |
| Cc1nc2cc(NC(=O)COc3ccc(C#N)cc3)ccc2n1-c1ccccc1 | – | inconclusive: 0.891 µM [inhibitor, single point] |
| COc1ccccc1-n1c(-c2ccc(Cl)cc2)c[nH]c1=S | inactive: -20.8% | – |
| CC1Cc2ccccc2N1Cc1cc(=O)c(OCC(=O)Nc2ccccc2)co1 (stereo unspecified) | – | inconclusive: 22.4 µM [inhibitor, single point] |
| O=C(Cn1c(=O)sc2ccccc21)Nc1ccc(S(=O)(=O)N2CCCCC2)cc1 | – | inconclusive: 10 µM [inhibitor, partial curve] |
| Cc1cc(C)c2c(n1)sc1c(O)cc(=O)[nH]c12 | – | inconclusive: 22.4 µM [inhibitor, single point] |
